The whole screen tested about 100,000 compounds, of which about 250 (0.25%) were called active. This list was built around the results that the source calls inconclusive (neither active nor inactive); the mix of calls is not that of the screen. The call rests on the fitted dose curve; in most records, active means well fitted inhibition curve with a large enough effect; inconclusive means small, poorly fitted or top-dose-only effect; inactive means flat fitted curve, though single readings scatter. No potency is given beside an inconclusive call; the fits are too rough.
biological target: Alanine aminotransferase 2 (Homo sapiens) (UniProt Q8TD30); assay: Primary qHTS assay for inhibitors of Glutamate pyruvate transaminase 2 (GPT2); settings: Recombinant GPT2, coupled pyruvate oxidase/HRP Amplex Red fluorescence; series mostly up to 57.7 µM; further: nearly all actives have a fitted effect of over 60% in size
Outline: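 Fluorescence read-out: pyruvate from GPT2 turnover coupled to pyruvate oxidase, HRP and Amplex Red (0.2mM ThPP, 0.2U/mL PO and HRP, 50uM Amplex final). Substrates 250uM a-KG, 2mM L-alanine; enzyme 10ng/uL; 30 min RT.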
Potency means the concentration at half of the fitted maximal effect; tags describe the fitted curve by direction and shape.

Chain of UniProt Q8TD30 (Q8TD30 whole entry, looked up): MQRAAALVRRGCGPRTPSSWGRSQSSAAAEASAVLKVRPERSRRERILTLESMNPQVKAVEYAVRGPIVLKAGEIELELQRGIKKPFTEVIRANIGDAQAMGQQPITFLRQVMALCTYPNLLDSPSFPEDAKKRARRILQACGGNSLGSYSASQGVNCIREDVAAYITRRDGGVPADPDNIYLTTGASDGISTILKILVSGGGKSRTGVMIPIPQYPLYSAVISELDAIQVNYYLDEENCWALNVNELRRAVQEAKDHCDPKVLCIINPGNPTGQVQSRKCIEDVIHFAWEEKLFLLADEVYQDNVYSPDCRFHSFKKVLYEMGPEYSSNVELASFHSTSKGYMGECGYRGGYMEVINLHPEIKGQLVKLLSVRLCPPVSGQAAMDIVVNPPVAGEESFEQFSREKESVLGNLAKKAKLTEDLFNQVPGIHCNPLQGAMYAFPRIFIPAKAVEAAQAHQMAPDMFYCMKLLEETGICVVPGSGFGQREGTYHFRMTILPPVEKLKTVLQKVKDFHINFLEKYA

| Structure (SMILES) | Potency |
| --- | --- |
| CC(C)c1nc2c(c(-c3ccc(Cl)cc3)n1)CCN(Cc1ccc(F)cc1)CC2 | inactive |
| CC(C)NC(=O)N1CCCC1C(=O)N1CCC(N2CCCC2=O)CC1 (stereo not given) | inconclusive [inhibitor, partial curve, poor fit] |
| COc1ccc(N2CCN(C(=O)CC3CCCCN(Cc4ccccc4)C3=O)CC2)cc1 (stereo not given) | inconclusive [inhibitor, full curve, poor fit] |
| CS(=O)(=O)N1CCCN(C(=O)CN2CCCC2=O)CCNC(=O)CC1c1ccccc1 (stereo not given) | inconclusive [inhibitor, full curve, poor fit] |
| CCCn1cc2c3c(cccc31)CN(C(=O)c1ccccc1OC)CC2 | inconclusive [inhibitor, partial curve, poor fit] |
| COc1ccc(Nc2cnc3ccc(-c4ccccc4)nn23)cc1OC | inconclusive [inhibitor, single point] |
| O=C(NCCc1ccncc1)C1c2ccccc2C(=O)N(C2CCCCC2)C12CCCCC2 (stereo not given) | inactive |
| COc1ccc(C2(C(=O)N3CCCN(C(=O)C4CC4)C(c4ccccc4)CC(=O)NCC3)CC2)cc1 (stereo not given) | inconclusive [inhibitor, full curve, poor fit] |
| COc1cc(N2CCOCC2)ccc1Nc1ncc(F)c(Nc2ccccc2NS(C)(=O)=O)n1 | active: 3.16 µM |
| CC(=O)N1CCN(C(=O)C[C@@H]2CCNC[C@@H]2Cc2cc(CSc3ccccc3)on2)CC1 | inconclusive [inhibitor, single point] |
| Cc1c(CC(=O)NCc2ccon2)c2c(n1Cc1ccccc1F)CCCC2=O | inconclusive [inhibitor, single point] |
| c1ccc(N2CCN(C3CCCN(Cc4cn[nH]c4C4CCCCC4)C3)CC2)cc1 (stereo not given) | inconclusive [inhibitor, single point] |
| O=C(O)COc1ccc(-c2nccc3c2C(=O)N(Cc2ccccc2)CC(COc2ccc(Cl)cc2)O3)cc1 (stereo not given) | inactive |
| CN(C)C(=O)c1ccc(OC2CCN(C(=O)c3ccc(Cl)cc3)CC2)nc1 | inactive |
| CN1C(=O)c2cccn2CC1C(=O)NCc1cccc(F)c1 (stereo not given) | inconclusive [inhibitor, full curve, poor fit] |
| Cc1nc(C2CC(O)C2)cc(N2CCN(c3nc4ccccc4s3)CC2)n1 (stereo not given) | inactive |
| O=S(=O)(c1ccccc1)N1CCC(c2nc(CCOCC3CC3)no2)C1 (stereo not given) | inactive |
| COc1ccc(-c2nn(-c3ccccc3C)cc2CN2CCN(C)C(=O)[C@@H]2C)cc1F | inconclusive [inhibitor, single point] |
| COc1ccc(C(=O)NCC2Cn3cccc3C(=O)N2CC(C)C)cc1 (stereo not given) | inconclusive [inhibitor, single point] |
| CCc1cc(NCc2nc(-c3ccncc3)n[nH]2)n2nc(C)c(C)c2n1 | inactive |
| N#Cc1cccc(C(=O)N2CCC(N3C[C@H](Oc4ccccc4)[C@@H]3c3ccncc3)CC2)c1 | inconclusive [inhibitor, partial curve, poor fit] |
| COc1ccc(C2Cn3nnc(-c4noc(-c5ccccc5)n4)c3CO2)cc1 (stereo not given) | inconclusive [inhibitor, single point] |

| Structure (SMILES) | Potency |
| --- | --- |
| CC(C)(C)NC(=O)N1CCCCCCNC(=O)[C@@H]2C[C@@H](c3nc(-c4cccnc4)no3)C[C@@H]21 | inactive |
| COCc1cc(CNc2nccc(-c3ccccn3)n2)[nH]n1 | inactive |
| Cc1ccc(-c2cccc(CN3CCCC(NC(=O)c4ccccc4)C3)c2)cc1Cl (stereo not given) | inconclusive [inhibitor, single point] |
| Cc1ccccc1C(=O)N1CCC2(CC1)N=C(c1ccc(Br)cc1)NO2 | inactive |
| CCOCCCNC(=O)N1CCn2nnc(CCC(=O)N3CCOCC3)c2C1 | inconclusive [inhibitor, single point] |
| CCN(CCOc1ccc(C)cc1)C(=O)c1c(O)cccc1O | inconclusive [inhibitor, single point] |
| O=C(Cc1cccs1)NC1CCCc2c1[nH]c1c(Cl)cccc21 (stereo not given) | inactive |
| CCN(CC)Cc1nc(C2(O)CCN(C3CCCC3)CC2)cs1 | inconclusive [inhibitor, single point] |
| O=C(O)C=Cc1ccc(O)c(O)c1 | active: 4.32 µM |
| COc1ccccc1-c1ccc2ncc(Nc3ccccc3F)n2n1 | inconclusive [inhibitor, partial curve] |
| O=C(N1CCCC(Nc2ccc(F)cc2)C1)C12CC3CC(CC(C3)C1)C2 (stereo not given) | inconclusive [inhibitor, partial curve] |
| COc1ccc(C2(C(=O)N3CCCN(S(=O)(=O)c4ccccc4)CCC(=O)NCC3)CC2)cc1 | inactive |
| CCOCCNc1ncnc2c1CN(c1ccc(C)cc1)C(=O)CN2C | inconclusive [inhibitor, single point] |
| N#Cc1ccc(O[C@@H]2CCOC[C@H]2NC(=O)CCc2cc(=O)[nH]o2)cc1 | inconclusive [inhibitor, single point] |
| COc1ccc(CN2C(=O)[C@H](OC)[C@@H]2C2=CCN(C(=O)c3ccco3)CC2)cc1 | inconclusive [inhibitor, partial curve, poor fit] |
| CC[C@H]1CN(S(=O)(=O)c2ccc(OC)cc2)CC[C@H]1CC(=O)N(C)CC#N | inconclusive [inhibitor, single point] |
| CC(C)(N)C(=O)N1CCC(n2nccc2NC(=O)c2cccc(F)c2)CC1 | inconclusive [inhibitor, full curve, poor fit] |
| CNCCCC1(c2ccccc2)OC(C)(C)c2ccccc21 (stereo not given) | inconclusive [inhibitor, partial curve, poor fit] |
| COc1ccc(C(=O)N2CCC(c3nc(CCOCC4CCOCC4)no3)C2)cn1 (stereo not given) | inactive |
| Cn1ccc(C(=O)N2CCC(N3CCCC(C(=O)N4CCCC4)C3)CC2)n1 (stereo not given) | inconclusive [inhibitor, single point] |
| CC(=O)NCc1nnc2n1C(C(=O)NCCc1ccccc1F)CC2 (stereo not given) | inactive |
| Cc1ccc(Nc2ccnc(N3CCCC3C(=O)N3CCN(Cc4ccccc4)CC3)n2)cc1 (stereo not given) | inactive |

| Structure (SMILES) | Potency |
| --- | --- |
| Cn1ncc2c(C(=O)NCC3CC3)cc(C(C)(C)C)nc21 | inactive |
| O=C(/C=C/c1ccc(O)c(O)c1)O[C@H]1[C@@H]2C=CO[C@@H](O[C@@H]3O[C@H](CO)[C@@H](O)[C@H](O)[C@H]3O)[C@@H]2[C@@]2(CO)O[C@@H]12 | inconclusive [inhibitor, single point] |
| CC(C)(C)C(=O)N1CCN(C(=O)c2cccc(-c3ccccn3)c2)CC1 | inactive |
| O=C1CO[C@H]2CN(Cc3c[nH]c4ccccc34)C[C@H]2N1Cc1ccc(F)cc1 | inactive |
| COc1cccc(CNC(=O)c2ccc3c(c2)CC(=O)N3Cc2ccccc2)c1 | inconclusive [inhibitor, full curve, poor fit] |
| CCN1CC2(CCC1=O)CCN(C(=O)[C@@](C)(N)Cc1ccccc1)CC2 | inconclusive [inhibitor, full curve, poor fit] |
| CCCCCC(=O)Nc1nc2c(s1)C[C@@H]1[C@](C)(CO)[C@H](O)CC[C@@]1(C)[C@@H]2CC(=O)N[C@@H](CO)CC(C)C | inconclusive [inhibitor, partial curve] |
| CCn1ncnc1CN1CCC(N2CCCC(C(=O)N3CCCC3)C2)CC1 (stereo not given) | inconclusive [inhibitor, single point] |
| COCCO[C@H]1C(=O)N(C2CCN(C(=O)c3ccc(C#N)cc3)CC2)[C@H]1c1ccncc1 | inactive |
| Cc1oc(C(O)c2cncnc2)nc1C(=O)Nc1ccc(N2CCOCC2)cc1 (stereo not given) | inactive |
| CCNc1cc(NC2CCC(O)CC2)nc(Nc2ccc3c(ccn3Cc3ccccc3)c2)n1 (stereo not given) | inconclusive [inhibitor, partial curve, poor fit] |
| CC(C)N1C(=O)C(CC(=O)NCC2CCN(Cc3ccccc3F)CC2)=C2CCCCC21 (stereo not given) | inconclusive [inhibitor, single point] |
| CC(C)NC(=O)O[C@@H]1CC[C@]2(C)C(CC[C@@H](O)[C@H]2CC(=O)NCc2ccccc2)[C@]1(C)CO (stereo not given in full) | inconclusive [inhibitor, single point] |
| CCN(CC)Cc1cccc(/C=C/c2nc3ccc(F)cc3c(=O)n2-c2ccccc2Cl)n1 | inconclusive [inhibitor, single point] |
| CSCC(=O)N1C[C@@H](C(=O)O)[C@H](c2ccc3c(c2)OCO3)C1 | inactive |
| Cc1nc(CN2C[C@H](C(=O)Nc3cccc(F)c3)C[C@@H]2c2ccc(F)cc2)cs1 | inconclusive [inhibitor, single point] |
| Cn1c(C(=O)Nc2ccc(N3CCOCC3)cc2)cc2c1CCN(Cc1ccccc1)C2 | active: 22.4 µM |
| COc1ccc(-c2cc3c(ccn3Cc3ccncc3)c(N3CCOCC3)n2)cn1 | inactive |
| CCCc1nnc(N2C[C@@H](CCC)[C@H](C(=O)O)C2)s1 | inconclusive [inhibitor, single point] |
| CN(C)Cc1cn(C[C@H]2C[C@@H](NS(C)(=O)=O)[C@H](O)[C@@H]2O)nn1 | inconclusive [inhibitor, single point] |
| COC1OC(O)C2(CCC3(O2)C(C)CC2OC(=O)C4(C)CCCC3(C)C24)C1O (stereo not given) | inconclusive [inhibitor, single point] |
